The list shows a part of the results. Shown are side measurements of this screen, not its main read-out; they come without a call. Most of these compounds were active or inconclusive in the main read-out, so they are no random draw.
molecular target: Chromobox protein homolog 7 (Homo sapiens) (UniProt O95931); test: CBX7 chromodomain binding inhibitors, primary screen, biochemical, AlphaScreen (AID 1224903); conditions: AlphaScreen His6-CBX7 / biotin-H3K27me3 peptide binding; measured here: z-score of CBX7 signal; stronger effect = lower value
Sequence of UniProt O95931 (O95931 whole entry, looked up): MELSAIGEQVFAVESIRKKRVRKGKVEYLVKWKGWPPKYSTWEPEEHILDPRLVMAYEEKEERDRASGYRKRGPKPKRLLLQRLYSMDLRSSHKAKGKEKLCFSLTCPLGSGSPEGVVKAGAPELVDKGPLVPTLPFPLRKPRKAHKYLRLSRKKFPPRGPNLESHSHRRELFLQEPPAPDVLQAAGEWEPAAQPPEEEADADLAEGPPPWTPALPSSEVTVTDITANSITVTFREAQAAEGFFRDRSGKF

Structure (SMILES) | z-score
COc1ccc(OC)c(NC(=O)CSc2nccn2-c2ccc(F)cc2)c1 | -1.83
COc1ccc(-n2c(-c3ccc(C)cc3)cc3c2CC(C)(C)CC3=O)c(OC)c1 | -7.22
Cc1cc(NC(=O)CSc2nnc(CNC(=O)c3c(F)cccc3Cl)o2)no1 | -15.9
O=C(Nc1ccccn1)c1nc[nH]c1C(=O)O | -7.96
COc1ccc(NC(=O)CSc2nccn2-c2ccc(Cl)cc2)c(OC)c1 | -1.81
COc1cc(-c2nc(-c3ccccc3)c(-c3cccs3)[nH]2)cc(OC)c1O | -1.05
O=C(CCc1nc2sc3c(c2c(=O)[nH]1)CCCC3)NCc1ccccn1 | -3.09
O=C(Nc1ccc(Br)cc1)c1nc[nH]c1C(=O)O | -18.2
Cc1ccc(C(NC(=O)CCc2ccccc2)c2ccc3cccnc3c2O)cc1 (stereo not drawn) | -3.27
O=C(CCc1cn(Cc2ccccc2)c2ccccc12)NCc1ccccc1Cl | -8.83
CCc1ccc(C(=O)CC2(O)C(=O)N(Cc3ccc(Cl)cc3)c3ccccc32)cc1 (stereo not drawn) | -7.31
CC(C)(C)c1ccc2c(c1)N(CC(=O)NCCc1ccccc1)C(=O)CO2 | -10.2
COc1cc(S(=O)(=O)NCCc2c(C)[nH]c3ccc(C)cc23)c(C)cc1C | -0.651
CCn1c2c(c3cc(C4CCCCC4)ccc31)CCCC2O (stereo not drawn) | -1.48
COc1cc(C)c(S(=O)(=O)NCCc2c(C)[nH]c3ccc(C)cc23)cc1C | -0.621
Cc1ccn2c(Nc3ccc(C(C)C)cc3)c(-c3ccccn3)nc2c1 | -21.4
Cc1ccc2nsnc2c1NC(=O)c1ncn[nH]1 | -5.93
Cc1nnc(NC(=O)c2ccc(S(=O)(=O)N3CC(C)OC(C)C3)cc2)o1 (stereo not drawn) | -1.32
CCc1nc2ccccc2c(NC(=O)CN2CCN(C)CC2)c1C | -1.64
O=C(O)c1c[nH]c2ccc(S(=O)(=O)NCc3ccc4c(c3)OCO4)cc2c1=O | -7
CCN(c1ccccc1)S(=O)(=O)c1ccc(C(=O)Nc2nnc(C3CC3)o2)cc1 | -1.62
CC(=O)Nc1nc(C)c(-c2csc(Nc3ccc(N)cc3)n2)s1 | -2.34

Structure (SMILES) | z-score
COc1cc(-c2nc(-c3cccs3)c(-c3cccs3)[nH]2)ccc1O | -6.34
CCCCn1cnc2cc(NCc3ccccc3Cl)ccc21 | -22.3
COc1ccccc1-c1nnc(NC(=O)c2ccc(S(=O)(=O)N(C)C)cc2)o1 | -16.2
Cc1cc(=O)n2ccc(CN3CCCCC3)c(O)c2n1 | -6.25
Cc1ccc(NCC(O)Cn2c3c(c4cc(C)ccc42)CCCC3)c(C)c1 (stereo not drawn) | -5.67
Cc1cccc(Nc2nc(-c3sc(N)nc3C)cs2)c1 | -10.2
Cc1nnc(NC(=O)c2ccc(S(=O)(=O)N(C)C)cc2)o1 | -25.7
CCc1ccc(NC(=O)CSc2nccn2-c2cccc(Cl)c2)cc1 | -2.01
O=C(Nc1nc(-c2ccccn2)cs1)c1ccc(Oc2ccccc2)cc1 | -16.1
N#Cc1nc(COc2ccc(F)cc2)oc1N1CCCCC1 | -10.6
CC1NC(=O)NC1CCCCCC(=O)OCC(=O)c1ccccc1 (stereo not drawn) | -20.9
Cc1cccc(NC(=O)CSc2nccn2-c2ccc(Cl)cc2)c1 | -1.94
CC(C)(C)n1cnc2cc(NCc3ccccc3Cl)ccc21 | -17.3
O=C(CSc1nnnn1-c1ccccc1)Nc1ncccn1 | -4.06
CCCCOc1cccc(-c2nc3c(C(=O)OC)c[nH]n3c2NC2CCCCCC2)c1 | -10.7
COc1ccc(OC)c(CNC(=O)CCCc2cn(C)c3ccccc23)c1 | -9.36
Cc1nc(NCCc2ccc3c(c2)OCCO3)c2cc(-c3ccccc3)sc2n1 | -7.19
Cc1ccnc(Nc2nc(-c3sc(N)nc3C)cs2)c1 | -11.8
CCCCOc1cccc(-c2nc3c(C(=O)OC)c[nH]n3c2NC2CCCC2)c1 | -0.903
COc1ccc(CN2C(=O)c3cccnc3C2Nc2ccc(OC)c(Cl)c2)cc1 (stereo not drawn) | -10.8
Cc1ccc(-c2[nH]c(-c3c[nH]c4ccccc34)nc2-c2ccccc2)cc1 | -0.62
Cc1ccccc1Nc1c(-c2ccccn2)nc2ccccn12 | -17.2

Structure (SMILES) | z-score
Cc1ccc(Nc2nc(-c3c(C)nc4sccn34)cs2)c(C)c1 | -0.65
CC(C)CN(CC(C)C)S(=O)(=O)c1ccc(C(=O)Nc2nnc(C3CC3)o2)cc1 | -2.78
Cc1cc(C)c(OCC(O)Cn2cnc3ccccc32)c(C)c1 (stereo not drawn) | -9.74
O=C(Nc1nnc(-c2ccc(F)cc2)o1)c1ccc(S(=O)(=O)N2CCOCC2)cc1 | -4.38
CCc1nnc(NC(=O)c2ccc(S(=O)(=O)N(C)Cc3ccccc3)cc2)o1 | -5.47
COc1ccc(-c2cn(-c3ccc(Cl)cc3)c(SCC(=O)Nc3ccc(F)cc3)n2)cc1OC | -4.21
CCOC(=O)c1cnc2c(C)cc(C)cc2c1Nc1ccc(N2CCCCC2)cc1 | -17.8
COc1cc(C(=O)NCc2nnc(SCC(=O)Nc3cc(C)on3)o2)cc(OC)c1OC | -14.6
N#Cc1nc(COc2ccccc2F)oc1N1CCN(Cc2ccccc2)CC1 | -9.88
COc1ccc(C2c3c(-c4ccccc4)n[nH]c3C(=O)N2c2ccccc2)cc1 (stereo not drawn) | -6.98
CCCCn1cnc2cc(NCc3ccc(Cl)cc3)ccc21 | -22.3
COc1ccc(OC)c(NC(=O)c2c(NCc3ccc(N(C)C)cc3)sc3c2CCCC3)c1 | -27
COc1ccc(C(=O)Nc2nc(N3C(=O)c4ccccc4C3=O)n(-c3ccccc3)n2)cc1 | -8.56
CCCCN(CCCNC(=O)C1CC(=O)N(CCc2ccccc2)C1)c1ccccc1 (stereo not drawn) | -1.02
C=CCN(CC=C)S(=O)(=O)c1ccc(C(=O)Nc2nnc(CC)o2)cc1 | -10.3
CCC1CCCCN1S(=O)(=O)c1ccc(C(=O)Nc2nnc(-c3ccccc3Cl)o2)cc1 (stereo not drawn) | -4.16
CCOc1ccc(Nc2nc(-c3ccccn3)cs2)cc1 | -13.5
CCCn1cnc2cc(NCc3ccccn3)ccc21 | -18.7
O=C(Nc1nnc(C2CC2)o1)c1ccc(S(=O)(=O)N2CCCCCC2)cc1 | -2.79
O=C(Nc1ccc(Cc2ccncc2)cc1)c1ncn[nH]1 | -27.7
CCN(CC)c1ccc(Nc2nc(-c3c(C)nc4ccccn34)cs2)cc1 | -18.3
c1ccc(-c2csc(Nc3ncccn3)n2)nc1 | -19.5

Structure (SMILES) | z-score
C=CCN(CC=C)S(=O)(=O)c1ccc(C(=O)Nc2nnc(C3CC3)o2)cc1 | -2.79
CCOC(=O)N1CCc2c(sc(NCc3cccs3)c2C(=O)Nc2cc(OC)ccc2OC)C1 | -5.23
CCc1nnc(NC(=O)c2ccc(S(=O)(=O)N3CCCC3)cc2)o1 | -12.3
CN(C)S(=O)(=O)c1ccc(C(=O)Nc2nnc(-c3ccc(Cl)s3)o2)cc1 | -13.1
CCOc1ccccc1NC(=O)CSc1nccn1-c1cccc(Cl)c1 | -2.52
Fc1ccc(-c2[nH]c(-c3c[nH]c4ccccc34)nc2-c2ccccc2)cc1 | -0.581
Oc1ccc(-c2[nH]c(-c3cccc(Cl)c3)nc2-c2ccccc2)cc1 | -0.585
Cc1c(NC(=O)c2ncn[nH]2)cccc1-c1nc2ccccc2s1 | -21.6
CCOC(=O)c1[nH]cnc1C(=O)Nc1ccccn1 | -14.6
COc1ccc(NC(CNS(=O)(=O)c2ccccc2)c2ccccc2)cc1 (stereo not drawn) | -10.2
CCC(=C(c1ccc(OC)cc1)c1ccc(OC)cc1)c1cn(CC(O)CN2CCOCC2)c2ccccc12 (stereo not drawn) | -3.97
CCCn1cnc2cc(NCc3ccc(OCC)cc3)ccc21 | -16
CCCCN1CCCc2cc(CN(CCCN3CCOCC3)C(=O)Nc3ccc(C)c(C)c3)ccc21 | -15.4
CCCn1cnc2cc(NCc3cccc(Br)c3)ccc21 | -19.3
Cc1cccnc1NC(c1ccccc1)c1ccc2cccnc2c1O (stereo not drawn) | -15.6
O=C(Nc1nnc(-c2ccc(Cl)s2)o1)c1ccc(S(=O)(=O)N2CCOCC2)cc1 | -11.2
COC(=O)CNc1c(-c2ccccn2)nc2ccccn12 | -29
O=C(Nc1ccc(N2CCCC2=O)cc1)c1ncn[nH]1 | -9.73
CCc1ccc2oc(-c3ccc(NC(=O)c4ncn[nH]4)cc3)nc2c1 | -17.3
COc1ccc(N2CCN(c3oc(COc4ccc(C)cc4)nc3C#N)CC2)cc1 | -14.7
COc1ccc2c(c1)c(CC(=O)Nc1ccccn1)c(C)n2C(=O)c1ccc(Cl)cc1 | -2.07
CN(Cc1ccccc1)c1oc(COc2ccccc2F)nc1C#N | -3.64

Structure (SMILES) | z-score
CC1CCN(Cc2cc(Cn3ccnc3)c3cccnc3c2O)CC1 | -15.7
COc1ccc(-c2csc(Nc3ccc4c(c3)OCO4)n2)cc1F | -8.18
COc1ccc(CN2CC(C(=O)NCc3ccccn3)CC2=O)cc1 (stereo not drawn) | -11.9
c1ccc(Nc2c(-c3ccccn3)nc3ccccn23)cc1 | -30.7
Cc1ccc(OCCCCc2c(C)n[nH]c2C)c(C(C)(C)C)c1 | -20.8
O=C1C2=C(Nc3ccccc3SC2c2ccco2)c2ccccc21 (stereo not drawn) | -9.46
Cc1ccc2nc(-c3ccccn3)c(NC3CCCC3)n2c1 | -19
O=C(O)c1cccc(Nc2nc(-c3ccccn3)cs2)c1 | -16.9
CCN(CC)c1ccc(Nc2nc(-c3c(C)nc4ncccn34)cs2)cc1 | -18.7
CCCCOc1ccc(-c2nc3c(C(=O)OC)c[nH]n3c2NC2CCCCCC2)cc1 | -15.5
CCOc1ccc2nc(N3CCCC(C(=O)N4CCN(CC)CC4)C3)sc2c1 (stereo not drawn) | -10.6
Cc1ccc(OCCn2c(C3CC(=O)N(c4cc(C)ccc4C)C3)nc3ccccc32)cc1 (stereo not drawn) | -3.16
O=C(CCc1ccccc1)NC(c1cccs1)c1cc(Cl)c2cccnc2c1O (stereo not drawn) | -1.93
CCOc1ccc2nc(N3CCCC(C(=O)NCCCN4CCN(C)CC4)C3)sc2c1 (stereo not drawn) | -10.6
COc1ccc(N2CCN(Cc3nc(-c4ccc(C)cc4)no3)CC2)cc1 | -6.54
CCCn1cnc2cc(NCc3ccc(C)cc3)ccc21 | -15.4
O=C(CCCN1C(=O)c2cccnc2C1=O)N1CCN(c2ccccc2F)CC1 | -6.29
Cc1ccc(C(c2ccccc2)N2CCN(CCCc3c[nH]c4ccccc34)CC2)cc1 (stereo not drawn) | -11.1
Cc1ccccc1Nc1c(-c2ccccn2)nc2cccc(C)n12 | -16.4
O=C(Nc1nnc(C2CC2)o1)c1ccc(S(=O)(=O)N2CCCCC2)cc1 | -2.76

Reference: PubChem BioAssay AID1224903 (Bradner/Qi Labs at DFCI, 2016)
